{"source": "the supplement of paper PMC7125110", "parents": {"B1": {"name": "glmS ribozyme (parent)", "chain": "AUAAAAGCGCCAGAACUACAGAAAUGUAGUUGACGAGGAGGAGGUUUAUCGAAUUUUCGGCGGAUGCCUCCAAA"}}, "conditions_in_all_cases": "with glucosamine-6-phosphate", "key": {"glucosamine-6-phosphate [1]": {"variants_of": "B1", "test": "self-cleavage kobs at 40 uM GlcN6P; higher = faster cleavage; RNA array", "procedure,_shortened": "(§1)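 kobs was derived by fitting per-tile medians to one- or two-exponential decays after normalising signals to baseline and to non-cleaving reference variants. Those signals came from barcoded ribozyme variants transcribed in situ by E. coli RNA polymerase on sequenced MiSeq chips, followed through a hybridised Cy3 probe at 37 °C and imaged over ~14 h. Glucosamine-6-phosphate (40 μM to 10 mM) in HEPES/KCl/Mg(OAc)2 buffer was flowed in. Weighted Michaelis–Menten fits across concentrations then gave kcat and KM.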"}, "glucosamine-6-phosphate [2]": {"variants_of": "B1", "test": "self-cleavage kobs at 640 uM GlcN6P; higher = faster cleavage; RNA array", "procedure,_shortened": "as §1"}, "glucosamine-6-phosphate [3]": {"variants_of": "B1", "test": "self-cleavage kobs at 2500 uM GlcN6P; higher = faster cleavage; RNA array", "procedure,_shortened": "as §1"}, "glucosamine-6-phosphate [4]": {"variants_of": "B1", "test": "self-cleavage kobs at 10000 uM GlcN6P; higher = faster cleavage; RNA array", "procedure,_shortened": "as §1"}, "glucosamine-6-phosphate [5]": {"variants_of": "B1", "test": "self-cleavage kobs at 160 uM GlcN6P; higher = faster cleavage; RNA array", "procedure,_shortened": "as §1"}}, "note": "± gives the standard error. Variants at the floor of the assay are shown more often than the library holds them."}
{"variant": "C11G G40U", "values": [{"measurement": "self-cleavage kobs at 40 uM GlcN6P", "setting": "glucosamine-6-phosphate [1]", "result": "< 1e-05", "unit": "s⁻¹"}, {"measurement": "self-cleavage kobs at 640 uM GlcN6P", "setting": "glucosamine-6-phosphate [2]", "result": "< 1e-05", "unit": "s⁻¹"}, {"measurement": "self-cleavage kobs at 2500 uM GlcN6P", "setting": "glucosamine-6-phosphate [3]", "result": "< 1e-05", "unit": "s⁻¹"}, {"measurement": "self-cleavage kobs at 10000 uM GlcN6P", "setting": "glucosamine-6-phosphate [4]", "result": "< 1e-05", "unit": "s⁻¹"}]}
{"variant": "C11G G40A", "values": [{"measurement": "self-cleavage kobs at 40 uM GlcN6P", "setting": "glucosamine-6-phosphate [1]", "result": "< 1e-05", "unit": "s⁻¹"}, {"measurement": "self-cleavage kobs at 640 uM GlcN6P", "setting": "glucosamine-6-phosphate [2]", "result": "< 1e-05", "unit": "s⁻¹"}, {"measurement": "self-cleavage kobs at 160 uM GlcN6P", "setting": "glucosamine-6-phosphate [5]", "result": "< 1e-05", "unit": "s⁻¹"}, {"measurement": "self-cleavage kobs at 10000 uM GlcN6P", "setting": "glucosamine-6-phosphate [4]", "result": "< 1e-05", "unit": "s⁻¹"}]}
{"variant": "G13A U49G", "values": [{"measurement": "self-cleavage kobs at 40 uM GlcN6P", "setting": "glucosamine-6-phosphate [1]", "result": "< 1e-05", "unit": "s⁻¹"}, {"measurement": "self-cleavage kobs at 160 uM GlcN6P", "setting": "glucosamine-6-phosphate [5]", "result": "< 1e-05", "unit": "s⁻¹"}]}
{"variant": "C11G U49G C68A", "values": [{"measurement": "self-cleavage kobs at 40 uM GlcN6P", "setting": "glucosamine-6-phosphate [1]", "result": "< 1e-05", "unit": "s⁻¹"}, {"measurement": "self-cleavage kobs at 10000 uM GlcN6P", "setting": "glucosamine-6-phosphate [4]", "result": "< 1e-05", "unit": "s⁻¹"}]}
{"variant": "C11G G38U", "values": [{"measurement": "self-cleavage kobs at 40 uM GlcN6P", "setting": "glucosamine-6-phosphate [1]", "result": "< 1e-05", "unit": "s⁻¹"}, {"measurement": "self-cleavage kobs at 640 uM GlcN6P", "setting": "glucosamine-6-phosphate [2]", "result": "< 1e-05", "unit": "s⁻¹"}, {"measurement": "self-cleavage kobs at 160 uM GlcN6P", "setting": "glucosamine-6-phosphate [5]", "result": "< 1e-05", "unit": "s⁻¹"}, {"measurement": "self-cleavage kobs at 10000 uM GlcN6P", "setting": "glucosamine-6-phosphate [4]", "result": "< 1e-05", "unit": "s⁻¹"}]}
{"variant": "A12U G41A C68U", "values": [{"measurement": "self-cleavage kobs at 40 uM GlcN6P", "setting": "glucosamine-6-phosphate [1]", "result": "< 1e-05", "unit": "s⁻¹"}]}
{"variant": "C11U U49A", "values": [{"measurement": "self-cleavage kobs at 40 uM GlcN6P", "setting": "glucosamine-6-phosphate [1]", "result": "< 1e-05", "unit": "s⁻¹"}, {"measurement": "self-cleavage kobs at 640 uM GlcN6P", "setting": "glucosamine-6-phosphate [2]", "result": "< 1e-05", "unit": "s⁻¹"}, {"measurement": "self-cleavage kobs at 2500 uM GlcN6P", "setting": "glucosamine-6-phosphate [3]", "result": "< 1e-05", "unit": "s⁻¹"}, {"measurement": "self-cleavage kobs at 10000 uM GlcN6P", "setting": "glucosamine-6-phosphate [4]", "result": "< 1e-05", "unit": "s⁻¹"}]}
{"variant": "A12C U30C C71U", "values": [{"measurement": "self-cleavage kobs at 40 uM GlcN6P", "setting": "glucosamine-6-phosphate [1]", "result": "3.06e-05 ± 1.5e-05", "unit": "s⁻¹"}]}
{"variant": "G13A G37C", "values": [{"measurement": "self-cleavage kobs at 40 uM GlcN6P", "setting": "glucosamine-6-phosphate [1]", "result": "< 1e-05", "unit": "s⁻¹"}, {"measurement": "self-cleavage kobs at 640 uM GlcN6P", "setting": "glucosamine-6-phosphate [2]", "result": "< 1e-05", "unit": "s⁻¹"}, {"measurement": "self-cleavage kobs at 160 uM GlcN6P", "setting": "glucosamine-6-phosphate [5]", "result": "< 1e-05", "unit": "s⁻¹"}, {"measurement": "self-cleavage kobs at 2500 uM GlcN6P", "setting": "glucosamine-6-phosphate [3]", "result": "< 1e-05", "unit": "s⁻¹"}, {"measurement": "self-cleavage kobs at 10000 uM GlcN6P", "setting": "glucosamine-6-phosphate [4]", "result": "< 1e-05", "unit": "s⁻¹"}]}
{"variant": "A12C G41A", "values": [{"measurement": "self-cleavage kobs at 40 uM GlcN6P", "setting": "glucosamine-6-phosphate [1]", "result": "7.57e-05 ± 9.1e-06", "unit": "s⁻¹"}]}
{"variant": "A12C G41U", "values": [{"measurement": "self-cleavage kobs at 40 uM GlcN6P", "setting": "glucosamine-6-phosphate [1]", "result": "5.28e-05 ± 7e-06", "unit": "s⁻¹"}, {"measurement": "self-cleavage kobs at 640 uM GlcN6P", "setting": "glucosamine-6-phosphate [2]", "result": "0.00028 ± 6.1e-05", "unit": "s⁻¹"}, {"measurement": "self-cleavage kobs at 160 uM GlcN6P", "setting": "glucosamine-6-phosphate [5]", "result": "7.73e-05 ± 8.9e-06", "unit": "s⁻¹"}, {"measurement": "self-cleavage kobs at 2500 uM GlcN6P", "setting": "glucosamine-6-phosphate [3]", "result": "0.00034 ± 6.3e-05", "unit": "s⁻¹"}, {"measurement": "self-cleavage kobs at 10000 uM GlcN6P", "setting": "glucosamine-6-phosphate [4]", "result": "0.00129 ± 0.00013", "unit": "s⁻¹"}]}
{"variant": "A12U A52C C58U C71U", "values": [{"measurement": "self-cleavage kobs at 40 uM GlcN6P", "setting": "glucosamine-6-phosphate [1]", "result": "< 1e-05", "unit": "s⁻¹"}]}
{"variant": "A12C A15C A42U U57G C61G C71U", "values": [{"measurement": "self-cleavage kobs at 40 uM GlcN6P", "setting": "glucosamine-6-phosphate [1]", "result": "< 1e-05", "unit": "s⁻¹"}, {"measurement": "self-cleavage kobs at 160 uM GlcN6P", "setting": "glucosamine-6-phosphate [5]", "result": "< 1e-05", "unit": "s⁻¹"}, {"measurement": "self-cleavage kobs at 2500 uM GlcN6P", "setting": "glucosamine-6-phosphate [3]", "result": "< 1e-05", "unit": "s⁻¹"}]}
{"variant": "C11G G32C", "values": [{"measurement": "self-cleavage kobs at 40 uM GlcN6P", "setting": "glucosamine-6-phosphate [1]", "result": "< 1e-05", "unit": "s⁻¹"}, {"measurement": "self-cleavage kobs at 640 uM GlcN6P", "setting": "glucosamine-6-phosphate [2]", "result": "< 1e-05", "unit": "s⁻¹"}, {"measurement": "self-cleavage kobs at 2500 uM GlcN6P", "setting": "glucosamine-6-phosphate [3]", "result": "< 1e-05", "unit": "s⁻¹"}, {"measurement": "self-cleavage kobs at 10000 uM GlcN6P", "setting": "glucosamine-6-phosphate [4]", "result": "< 1e-05", "unit": "s⁻¹"}]}
{"variant": "C11G G13U G32A A36C A52U", "values": [{"measurement": "self-cleavage kobs at 40 uM GlcN6P", "setting": "glucosamine-6-phosphate [1]", "result": "< 1e-05", "unit": "s⁻¹"}]}
{"variant": "A12C G40A", "values": [{"measurement": "self-cleavage kobs at 40 uM GlcN6P", "setting": "glucosamine-6-phosphate [1]", "result": "0.000112 ± 2.1e-05", "unit": "s⁻¹"}, {"measurement": "self-cleavage kobs at 640 uM GlcN6P", "setting": "glucosamine-6-phosphate [2]", "result": "0.000633 ± 0.00023", "unit": "s⁻¹"}, {"measurement": "self-cleavage kobs at 160 uM GlcN6P", "setting": "glucosamine-6-phosphate [5]", "result": "0.000305 ± 8e-05", "unit": "s⁻¹"}, {"measurement": "self-cleavage kobs at 2500 uM GlcN6P", "setting": "glucosamine-6-phosphate [3]", "result": "0.00149 ± 0.00055", "unit": "s⁻¹"}, {"measurement": "self-cleavage kobs at 10000 uM GlcN6P", "setting": "glucosamine-6-phosphate [4]", "result": "0.00569 ± 0.0013", "unit": "s⁻¹"}]}
{"variant": "C11G G44A A64C", "values": [{"measurement": "self-cleavage kobs at 40 uM GlcN6P", "setting": "glucosamine-6-phosphate [1]", "result": "< 1e-05", "unit": "s⁻¹"}, {"measurement": "self-cleavage kobs at 10000 uM GlcN6P", "setting": "glucosamine-6-phosphate [4]", "result": "< 1e-05", "unit": "s⁻¹"}]}
{"variant": "A12C U57A G62A", "values": [{"measurement": "self-cleavage kobs at 40 uM GlcN6P", "setting": "glucosamine-6-phosphate [1]", "result": "< 1e-05", "unit": "s⁻¹"}]}
{"variant": "C11G G13U G41U", "values": [{"measurement": "self-cleavage kobs at 40 uM GlcN6P", "setting": "glucosamine-6-phosphate [1]", "result": "< 1e-05", "unit": "s⁻¹"}, {"measurement": "self-cleavage kobs at 10000 uM GlcN6P", "setting": "glucosamine-6-phosphate [4]", "result": "< 1e-05", "unit": "s⁻¹"}]}
{"variant": "C11G G29A", "values": [{"measurement": "self-cleavage kobs at 40 uM GlcN6P", "setting": "glucosamine-6-phosphate [1]", "result": "< 1e-05", "unit": "s⁻¹"}]}
{"variant": "C11U G13A G38A G66C", "values": [{"measurement": "self-cleavage kobs at 40 uM GlcN6P", "setting": "glucosamine-6-phosphate [1]", "result": "< 1e-05", "unit": "s⁻¹"}]}
{"variant": "C11U U45C G60C C61G", "values": [{"measurement": "self-cleavage kobs at 40 uM GlcN6P", "setting": "glucosamine-6-phosphate [1]", "result": "< 1e-05", "unit": "s⁻¹"}, {"measurement": "self-cleavage kobs at 10000 uM GlcN6P", "setting": "glucosamine-6-phosphate [4]", "result": "< 1e-05", "unit": "s⁻¹"}]}
{"variant": "C11U G43U", "values": [{"measurement": "self-cleavage kobs at 40 uM GlcN6P", "setting": "glucosamine-6-phosphate [1]", "result": "< 1e-05", "unit": "s⁻¹"}, {"measurement": "self-cleavage kobs at 640 uM GlcN6P", "setting": "glucosamine-6-phosphate [2]", "result": "< 1e-05", "unit": "s⁻¹"}, {"measurement": "self-cleavage kobs at 160 uM GlcN6P", "setting": "glucosamine-6-phosphate [5]", "result": "< 1e-05", "unit": "s⁻¹"}, {"measurement": "self-cleavage kobs at 2500 uM GlcN6P", "setting": "glucosamine-6-phosphate [3]", "result": "< 1e-05", "unit": "s⁻¹"}, {"measurement": "self-cleavage kobs at 10000 uM GlcN6P", "setting": "glucosamine-6-phosphate [4]", "result": "< 1e-05", "unit": "s⁻¹"}]}
